{"source": "PubChem BioAssay AID686978", "about": "(National Center for Advancing Translational Sciences (NCATS), 2013)", "note": "Where “and” joins values, the source holds several entries; their conditions need not be identical. Identical values can stand only once. Out of some 420,000 compounds screened, about 64,000 (15%) were called active. The inconclusive results got no clear call from the source; some entries with a clear call stand among them for comparison. Calls follow the shape of the dose curve; as a rule, active = well fitted inhibition curve with a large enough effect; inconclusive = small, poorly fitted or top-dose-only effect; inactive = flat fitted curve, though single readings scatter. A potency beside an inconclusive call is a rough fit, not a confirmed value. % is scaled to controls: 0 for no effect and ±100 for the full control effect; potency is read from the fitted curve at half-maximal effect; tags tell the direction and shape of the fitted curve.", "data": [{"test": "qHTS for Inhibitors of human tyrosyl-DNA phosphodiesterase 1 (TDP1): qHTS in cells in absence of CPT; also: nearly all actives have a fitted effect of over 55% in size", "conditions": "DT40 Tdp1-/- hTDP1 cells, no CPT, ATP luminescence, 48 h; activity change, negative = growth inhibition: at 46.2 µM (top of the series) unless noted", "summary_of_the_method": "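DT40 Tdp1-/-;hTDP1 cells, no CPT (DMSO vehicle only), 400 cells/well; compounds pin-transferred; ≥48 hr, 37 °C; CellTiter-Glo 30 min RT dark, luminescence read.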", "values": [{"smiles": "CCCNC(=O)CSCc1nc(-c2ccc(SC)cc2)oc1C", "Potency": "inconclusive: 25.9 µM [inhibitor, single point]"}, {"smiles": "CCOC(=O)c1sc(NC(=O)C2CCC2)cc1C", "Potency": "active: 20.6 µM"}, {"smiles": "CC1CC(C)CN(C(=O)CCS(=O)(=O)c2ccc3c(c2)NC(=O)CS3)C1", "note": "(centres undefined)", "Potency": "inconclusive: 23.1 µM [inhibitor, partial curve]"}, {"smiles": "CN(CC(=O)N1CC=C(c2ccccc2)CC1)S(=O)(=O)c1ccc2c(c1)c(=O)n(C)c(=O)n2C", "Potency": "inconclusive: 23.1 µM [inhibitor, single point]"}, {"smiles": "N#Cc1cc([N+](=O)[O-])ccc1Oc1cccc(/C=N/NC(=O)c2ccc(Cl)cc2)c1", "Potency": "inconclusive: 29.1 µM [inhibitor, single point]"}, {"smiles": "CCc1ccccc1Nc1cc(C(=O)NCc2ccc(C)cc2)c2ccccc2n1", "Potency": "inconclusive: 25.9 µM [inhibitor, single point]"}, {"smiles": "Cc1ccc(S(=O)(=O)c2cn(Cc3cccc(F)c3)c3cc(N4CCCC4)c(F)cc3c2=O)cc1", "Potency": "active: 5.17 µM"}, {"smiles": "Cc1ccc(-n2nc3c(N4CCC(C(=O)N5CCN(C)CC5)CC4)nnc(C)c3c2C)cc1", "Potency": "inactive"}, {"smiles": "O=C(O)c1ccc(-n2c(-c3cc(C4CC4)[nH]n3)n[nH]c2=S)cc1", "Potency": "inactive"}, {"smiles": "COc1ccc(C)cc1Nc1nc2c(S(=O)(=O)c3cccc(Cl)c3)nnn2c2ccsc12", "Potency": "inconclusive: 29.1 µM [inhibitor, single point]"}, {"smiles": "CCOc1ccc(NC(=O)c2cc3sc(Cl)cc3n2CC)cc1", "Potency": "inconclusive: 4.61 µM [inhibitor, full curve]"}, {"smiles": "COc1ccc(CNC(=S)NCc2ccc(Cl)cc2)cc1OC", "Potency": "inactive"}, {"smiles": "CC(C)c1ccc(O)c(NC(=S)NC(=O)c2cccnc2)c1", "Potency": "active: 18.4 µM"}, {"smiles": "CCOC(=O)c1c(S(=O)(=O)N2CCCC(C(=O)Nc3ccc(OCC)cc3)C2)c(C)n(C)c1C", "note": "(centres undefined)", "Potency": "inconclusive: 29.1 µM [inhibitor, single point]"}, {"smiles": "O=C(CN1C(=O)S/C(=C\\c2ccc(Cl)cc2)C1=O)NC1C=CS(=O)(=O)C1", "note": "(centres undefined)", "Potency": "inconclusive: 6.51 µM [inhibitor, full curve]"}, {"smiles": "COc1ccccc1CNC(=O)CN1C(=O)NC2(CCC(C)CC2)C1=O", "note": "(centres undefined)", "Potency": "inactive"}, {"smiles": "CCCCC1CC(CSC(=N)N)OC1=O", "note": "(centres undefined)", "Potency": "inconclusive: 29.1 µM [inhibitor, single point]"}, {"smiles": "CCCOc1ccccc1-c1nc(SCC(=O)c2ccccc2)n[nH]1", "Potency": "active: 18.4 µM"}, {"smiles": "Cc1ccc(-c2cc(NC(=O)c3ccccc3Cl)on2)cc1", "Potency": "inactive"}, {"smiles": "COc1ccc(CCNC(=O)c2cc(S(=O)(=O)N3CCCC3)cn2C)cc1OC", "Potency": "inconclusive: 20.6 µM [inhibitor, single point]"}, {"smiles": "NC(=S)N/N=C/c1ccc([N+](=O)[O-])cc1", "Potency": "inactive"}, {"smiles": "CCc1ccccc1NC(=O)CNC(=O)c1ccc(OCc2cn3ccccc3n2)cc1", "Potency": "inactive"}, {"smiles": "CCCNC(=O)NNC(=O)c1ccc(F)cc1", "Potency": "inconclusive: 29.1 µM [inhibitor, single point]"}, {"smiles": "CN(C)c1ccc(C(C(=O)NCC2CCCO2)N(Cc2ccco2)C(=O)c2snc(C(N)=O)c2N)cc1", "note": "(centres undefined)", "Potency": "inconclusive: 16.4 µM [inhibitor, partial curve]"}, {"smiles": "CCCCCCn1cc(C(=O)OCC)c(=O)c2cc(F)c(F)cc21", "Potency": "active: 23.1 µM"}, {"smiles": "O=C(Nc1ccc(C(=O)N2CCN(c3ccc(F)cc3)CC2)cc1)c1nsc2ccccc12", "Potency": "inconclusive: 29.1 µM [inhibitor, single point]"}, {"smiles": "O=C(COC(=O)c1ccc(S(=O)(=O)N2CCCCCC2)cc1)Nc1ccccc1C(F)(F)F", "Potency": "inactive"}, {"smiles": "NS(=O)(=O)c1ccc(S(=O)(=O)N2CCN(c3nc(-c4cccs4)nc4ccccc34)CC2)cc1", "Potency": "inconclusive: 35.5 µM [inhibitor, single point]"}, {"smiles": "CC1CCCN(C(=O)CCS(=O)(=O)c2ccc3c(c2)NC(=O)C(C)S3)C1", "note": "(centres undefined)", "Potency": "inconclusive: 29.1 µM [inhibitor, single point]"}, {"smiles": "Cn1c(=O)c2c(ncn2CC(=O)N2CCN(S(=O)(=O)c3ccccc3)CC2)n(C)c1=O", "Potency": "inactive"}, {"smiles": "COc1ccc(C2CCCN2C(=S)Nc2cccc(Cl)c2C)cc1OC", "note": "(centres undefined)", "Potency": "inconclusive: 29.1 µM [inhibitor, single point]"}, {"smiles": "CCOc1cc(CNS(=O)(=O)c2ccc3c(c2)CC(=O)N3C)cc(OCC)c1OCC", "Potency": "inactive"}, {"smiles": "O=S(=O)(c1ccc(Br)s1)N1CCN(c2ccnc3cc(Cl)ccc23)CC1", "Potency": "active: 18.4 µM"}, {"smiles": "COc1ccccc1-c1cccc2nccn12", "Potency": "inactive"}, {"smiles": "CC(C)C1C(C#N)=C(N)Oc2n[nH]c(-c3ccccc3)c21", "note": "(centres undefined)", "Potency": "inconclusive: 25.9 µM [inhibitor, single point]"}, {"smiles": "Cn1cccc1C(=O)N1CCC2(CCCN(c3ccccn3)C2)CC1", "Potency": "inconclusive: 29.1 µM [inhibitor, single point]"}, {"smiles": "O=C(NCc1cccs1)c1ccc(CS(=O)(=O)c2ccc(Cl)cc2)o1", "Potency": "inconclusive: 20.6 µM [inhibitor, single point]"}, {"smiles": "O=C(COc1ccc(/C=C\\[N+](=O)[O-])cc1)N1CCOCC1", "Potency": "inconclusive: 20.6 µM [inhibitor, partial curve, poor fit]"}, {"smiles": "CCCCN(CCCC)c1ncnc2c1cnn2-c1cccc(C)c1", "Potency": "inconclusive: 29.1 µM [inhibitor, single point]"}, {"smiles": "CCOC(=O)C1=C(O)/C(=C/c2ccc(OCC(=O)O)c(OCC)c2)SC1=Nc1ccc(C)cc1", "Potency": "inactive"}, {"smiles": "COc1ccc(Br)cc1C(=O)Nc1ccc2oc(-c3cccnc3)nc2c1", "Potency": "inactive"}, {"smiles": "COc1ccc(C2=C(C)C(N3CCN(C(=O)c4ccco4)CC3)=NS2(=O)=O)cc1", "Potency": "inactive"}, {"smiles": "COC1C=CC=C(C)C(=O)NC2=CC(=O)C(N)=C(CC(C)CC(OC)C(O)C(C)C=C(C)C1OC(N)=O)C2=O", "note": "(centres undefined)", "Potency": "active: 0.184 µM"}, {"smiles": "COC(=O)[C@@]12CCCN1[C@H](c1ccc(-c3ccc(OC)cc3)cc1)[C@@H]1C(=O)N(C)C(=O)[C@@H]12", "Potency": "active: 20.6 µM"}, {"smiles": "CCC(c1nnnn1Cc1ccco1)N(Cc1cc2cc(C)cc(C)c2[nH]c1=O)CC1CCCO1", "note": "(centres undefined)", "Potency": "active: 18.4 µM"}, {"smiles": "O=C(CN1CCC(C(=O)c2ccc3c(c2)OCCO3)CC1)Nc1ccccc1F", "Potency": "inconclusive: 23.1 µM [inhibitor, single point]"}, {"smiles": "CC(=O)c1cccc(OCc2cc(C(=O)N(C)CCC3CCOCC3)no2)c1", "Potency": "inconclusive: 20.6 µM [inhibitor, partial curve]"}, {"smiles": "COc1ccc(Cl)cc1-n1c(C)cc(C(=O)OCC(=O)N2CC(=O)Nc3ccccc32)c1C", "Potency": "inconclusive: 29.1 µM [inhibitor, partial curve, poor fit]"}, {"smiles": "CCOC(=O)c1c(C)[nH]c(C)c1C(=O)COC(=O)c1ccc(Cl)c(S(=O)(=O)NCc2ccccc2)c1", "Potency": "active: 23.1 µM"}, {"smiles": "COc1ccc(CCNC(=O)CCCn2c(=O)c3cccn3c3cccnc32)cc1OC", "Potency": "inconclusive: 16.4 µM [inhibitor, single point]"}, {"smiles": "CCCCOc1ccc(C2C(=O)N(C3CCCCC3)CC(=O)N2CC2CCCO2)cc1", "note": "(centres undefined)", "Potency": "inconclusive: 22.4 µM [inhibitor, single point]"}, {"smiles": "CCC1CN(C(=O)NCc2cccc(OC)c2)c2cc(Cl)ccc2O1", "note": "(centres undefined)", "Potency": "inconclusive: 20.6 µM [inhibitor, single point] and inconclusive: 29.1 µM [inhibitor, single point]"}, {"smiles": "CC(C)(C)c1ccccc1OCCOCCNCc1ccccc1", "Potency": "active: 13 µM"}, {"smiles": "CCOC(=O)c1cnn(-c2ccccc2)c1-n1cccc1C(=O)C(=O)Nc1ccc(OC)cc1", "Potency": "inconclusive: 13 µM [inhibitor, partial curve]"}, {"smiles": "CCc1cc(=O)oc2c(C)c(OCC(=O)N3CCC[C@@H]3C(=O)O)ccc12", "Potency": "inactive"}, {"smiles": "COc1ccccc1CNC(=O)OCc1nccnc1C(=O)Nc1ccc(Br)cn1", "Potency": "inconclusive: 11.6 µM [inhibitor, partial curve]"}, {"smiles": "Cc1cccc(N2CCC(NCc3c(C(=O)N4CCCCC4)nc4c(C)cccn34)CC2)c1", "Potency": "inconclusive: 18.4 µM [inhibitor, single point]"}, {"smiles": "CCCCC1CCC(C(=O)N2CC(=O)Nc3ccc(F)cc3C2c2ccc(F)cc2)CC1", "note": "(centres undefined)", "Potency": "inconclusive: 16.4 µM [inhibitor, single point]"}, {"smiles": "CC(C)(C)c1ccc(OCc2ccc(C(=O)N/N=C/c3ccc(O)c(O)c3)cc2)cc1", "Potency": "active: 1.46 µM"}, {"smiles": "O=C(Nc1ccc2c(c1)OCO2)N1CCC(CO)(CC2CCCCO2)CC1", "note": "(centres undefined)", "Potency": "inactive"}, {"smiles": "COc1ccc(-n2c(SCC(=O)NCc3cccs3)nnc2-c2ccoc2C)cc1", "Potency": "inconclusive: 13 µM [inhibitor, partial curve]"}, {"smiles": "O=C(CN1CCCc2ccccc21)Nc1cccc(S(=O)(=O)N2CCOCC2)c1", "Potency": "inconclusive: 29.1 µM [inhibitor, single point]"}, {"smiles": "CC(=O)Nc1ccc(C2=NN(CC#N)C(=O)SC2)cc1", "activity change, negative = growth inhibition": "inconclusive: -32.3% [inhibitor]"}, {"smiles": "CN(C)c1ccc(CNC(=O)C2(C)Cc3c(-c4ccccc4)ccnc3O2)cc1", "note": "(centres undefined)", "Potency": "inconclusive: 29.1 µM [inhibitor, single point]"}, {"smiles": "CCOC(=O)CC1(CC)Oc2ccccc2N1S(=O)(=O)c1ccc(C)cc1", "note": "(centres undefined)", "Potency": "inconclusive: 18.4 µM [inhibitor, single point]"}, {"smiles": "COc1ccc(CC(N)c2csc(NC(=O)Nc3ccc(OC)cc3)n2)cc1", "note": "(centres undefined)", "Potency": "active: 16.4 µM"}, {"smiles": "C(=N\\n1cnnc1)/c1cccnc1", "Potency": "inactive"}, {"smiles": "O=C(OCC(=O)N1CCC(Cc2ccccc2)CC1)c1ccccc1O", "Potency": "active: 29.1 µM"}, {"smiles": "COc1ccc(CNC(=O)C(c2ccc(C)o2)N(Cc2cccs2)C(=O)Cc2cccs2)cc1", "note": "(centres undefined)", "Potency": "inconclusive: 23.1 µM [inhibitor, single point]"}]}]}
